Assay results published in paper PMC11696497.
Substitutions are numbered along the chain they refer to. Results are given in words; binding and its absence hold for the method and conditions named. Binding seen in cells or lysates may run through a third protein. Some binding calls cover weakened binding; strength is not graded here. For some assays here: Where a sequence is shown, tags or fusion partners need not be part of it. Each block holds one molecule with its values, some of them ahead of it.

By UniProt entry, the sequences of proteins in these tests, tags left out. Residues count along the entry.
UniProt P56450: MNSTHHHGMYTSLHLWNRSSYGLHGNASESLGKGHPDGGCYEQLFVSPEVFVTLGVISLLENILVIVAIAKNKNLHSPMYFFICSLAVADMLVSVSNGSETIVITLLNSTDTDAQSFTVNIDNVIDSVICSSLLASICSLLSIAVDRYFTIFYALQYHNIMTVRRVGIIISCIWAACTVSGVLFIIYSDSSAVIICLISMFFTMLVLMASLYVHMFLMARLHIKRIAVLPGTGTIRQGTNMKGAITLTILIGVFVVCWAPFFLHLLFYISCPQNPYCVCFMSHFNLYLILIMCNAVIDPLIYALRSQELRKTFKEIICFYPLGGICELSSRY
UniProt P32245: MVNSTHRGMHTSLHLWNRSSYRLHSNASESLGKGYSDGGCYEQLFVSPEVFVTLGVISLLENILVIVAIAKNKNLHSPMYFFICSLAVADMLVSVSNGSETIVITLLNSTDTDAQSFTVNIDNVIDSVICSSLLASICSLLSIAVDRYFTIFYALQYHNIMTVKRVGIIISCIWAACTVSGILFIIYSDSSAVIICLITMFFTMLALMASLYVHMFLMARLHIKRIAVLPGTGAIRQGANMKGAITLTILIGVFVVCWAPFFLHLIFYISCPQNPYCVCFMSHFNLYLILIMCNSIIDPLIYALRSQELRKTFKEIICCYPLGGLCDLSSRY
UniProt P43220, residues 24-463: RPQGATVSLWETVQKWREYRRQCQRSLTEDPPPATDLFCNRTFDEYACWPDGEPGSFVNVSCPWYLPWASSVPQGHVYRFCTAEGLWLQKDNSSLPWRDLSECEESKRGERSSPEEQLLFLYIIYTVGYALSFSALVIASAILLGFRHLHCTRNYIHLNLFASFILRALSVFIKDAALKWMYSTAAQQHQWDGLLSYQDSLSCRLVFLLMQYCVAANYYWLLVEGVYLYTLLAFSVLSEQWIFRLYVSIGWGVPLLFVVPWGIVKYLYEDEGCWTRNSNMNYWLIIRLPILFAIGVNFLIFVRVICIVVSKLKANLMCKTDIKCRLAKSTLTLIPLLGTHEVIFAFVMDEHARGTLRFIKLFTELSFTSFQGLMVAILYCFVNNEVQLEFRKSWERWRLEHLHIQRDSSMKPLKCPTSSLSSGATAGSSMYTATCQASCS

Assays:
[1] = biological target: T1, NUCB2-Flag (nucleobindin-2, Flag-tagged, from plasmid pc-NUCB2-Flag) (UniProt P80303); experiment: co-IP; STC-1 cells transfected or cotransfected with pc-NUCB2-Flag, pc-MC4R-HA, pc-GLP-1R-HA or empty vector for 48 h; lysed in RIPA buffer; IP with anti-HA or anti-Flag antibody and protein A/G magnetic beads; immunoblot
T1 sequence: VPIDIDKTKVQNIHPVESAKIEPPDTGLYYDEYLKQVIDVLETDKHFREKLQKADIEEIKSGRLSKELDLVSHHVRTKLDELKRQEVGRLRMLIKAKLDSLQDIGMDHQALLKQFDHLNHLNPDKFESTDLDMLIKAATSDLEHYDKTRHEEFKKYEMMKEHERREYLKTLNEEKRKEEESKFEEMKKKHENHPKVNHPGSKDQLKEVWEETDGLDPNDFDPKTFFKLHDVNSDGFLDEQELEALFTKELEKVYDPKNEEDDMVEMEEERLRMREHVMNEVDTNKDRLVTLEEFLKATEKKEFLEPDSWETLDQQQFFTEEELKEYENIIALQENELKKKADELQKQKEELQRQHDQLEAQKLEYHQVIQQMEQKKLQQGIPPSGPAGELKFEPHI

[2] = biological target: T2, NUCB2 with EGFP at its C-terminus (plasmid pEGFP-NUCB2) (UniProt P80303); experiment: FRET or BRET; acceptor photobleaching FRET, EGFP-mCherry pair; pEGFP-NUCB2 and pmCherry-MC4R transfected into HEK293T cells for 48 h, cells fixed with 4% paraformaldehyde; negative control pEGFP-N1 and pmCherry-N1
T2 sequence: T1 sequence

[3] = biological target: T1, NUCB2-Flag (nucleobindin-2, Flag-tagged, from plasmid pc-NUCB2-Flag); experiment: co-IP; 293T cells transfected with Flag-tagged NUCB2 or NUCB2^ΔHFR; IP with anti-flag magnetic beads in cell lysates; immunoblot
[4] = biological target: T3, NUCB2^ΔHFR-Flag (NUCB2 with 70H-F-R72 mutated to 70A-A-A72, Flag-tagged) (UniProt P80303); experiment: as above
T3 sequence: T1 sequence with H46A, F47A, R48A

[5] = biological target: T4, NUCB2 deletion mutant ΔN25–50, Flag-tagged (plasmid pc-ΔN25–50-Flag) (UniProt P80303); experiment: co-IP; Flag-tagged NUCB2 and deletion mutants transfected for 48 h (STC-1 cells by the legend of Figure 6L; HEK293T cells with pc-MC4R-HA by the methods); RIPA lysate; immunoblot
T4 sequence: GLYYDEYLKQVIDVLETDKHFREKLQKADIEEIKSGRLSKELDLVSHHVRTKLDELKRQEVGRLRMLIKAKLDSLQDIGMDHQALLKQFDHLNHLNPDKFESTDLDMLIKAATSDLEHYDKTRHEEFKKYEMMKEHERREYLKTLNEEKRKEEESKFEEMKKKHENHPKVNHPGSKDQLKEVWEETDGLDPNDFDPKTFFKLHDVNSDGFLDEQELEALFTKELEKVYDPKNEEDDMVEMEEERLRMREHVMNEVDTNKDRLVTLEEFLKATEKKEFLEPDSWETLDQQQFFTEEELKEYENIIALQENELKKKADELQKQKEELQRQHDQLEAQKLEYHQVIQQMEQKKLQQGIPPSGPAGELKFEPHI

[6] = biological target: T5, NUCB2 deletion mutant ΔN51–75, Flag-tagged (plasmid pc-ΔN51–75-Flag) (UniProt P80303); experiment: as above
T5 sequence: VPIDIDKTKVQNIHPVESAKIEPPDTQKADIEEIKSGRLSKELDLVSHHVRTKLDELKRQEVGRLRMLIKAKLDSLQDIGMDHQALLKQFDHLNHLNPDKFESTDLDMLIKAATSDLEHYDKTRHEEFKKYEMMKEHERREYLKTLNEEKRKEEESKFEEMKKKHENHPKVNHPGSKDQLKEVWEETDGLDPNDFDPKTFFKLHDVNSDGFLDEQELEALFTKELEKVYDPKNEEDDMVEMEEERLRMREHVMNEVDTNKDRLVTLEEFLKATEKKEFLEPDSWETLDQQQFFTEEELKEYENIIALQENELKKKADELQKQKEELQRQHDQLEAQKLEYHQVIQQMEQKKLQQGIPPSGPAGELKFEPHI

[7] = biological target: T6, NUCB2 deletion mutant ΔN76–106, Flag-tagged (plasmid pc-ΔN76–106-Flag) (UniProt P80303); experiment: as above
T6 sequence: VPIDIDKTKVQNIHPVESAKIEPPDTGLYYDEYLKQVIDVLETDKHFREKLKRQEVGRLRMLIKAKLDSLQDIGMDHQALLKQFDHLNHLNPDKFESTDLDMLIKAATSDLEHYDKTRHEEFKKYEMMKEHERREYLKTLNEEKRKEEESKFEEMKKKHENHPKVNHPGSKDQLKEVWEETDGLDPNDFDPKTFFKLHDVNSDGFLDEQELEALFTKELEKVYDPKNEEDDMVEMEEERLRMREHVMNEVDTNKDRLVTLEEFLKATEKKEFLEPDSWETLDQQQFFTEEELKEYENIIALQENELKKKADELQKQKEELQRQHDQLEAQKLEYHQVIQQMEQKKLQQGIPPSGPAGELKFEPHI

[8] = biological target: T1, NUCB2-Flag (nucleobindin-2, Flag-tagged, from plasmid pc-NUCB2-Flag); experiment: as above
[9] = biological target: T7, endogenous NUCB2/nesfatin-1 of STC-1 cells (mouse (endogenous in STC-1)) (UniProt P81117); experiment: co-IP; endogenous proteins in STC-1 lysate; IP with anti-NUCB2/nesfatin-1 or anti-MC4R antibody and protein A/G magnetic beads; immunoblot
T7 sequence: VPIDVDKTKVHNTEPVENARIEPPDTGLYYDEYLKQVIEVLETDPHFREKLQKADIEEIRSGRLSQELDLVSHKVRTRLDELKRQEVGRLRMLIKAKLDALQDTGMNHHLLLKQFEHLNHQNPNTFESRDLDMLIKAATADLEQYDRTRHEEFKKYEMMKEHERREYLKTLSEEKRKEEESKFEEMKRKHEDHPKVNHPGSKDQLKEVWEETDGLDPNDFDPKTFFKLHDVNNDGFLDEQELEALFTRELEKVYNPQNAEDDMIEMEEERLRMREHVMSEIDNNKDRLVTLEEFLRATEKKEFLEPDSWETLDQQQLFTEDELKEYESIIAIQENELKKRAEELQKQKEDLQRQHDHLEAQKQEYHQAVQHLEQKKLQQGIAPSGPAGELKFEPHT

[10] = biological target: endogenous MC4R of STC-1 cells (mouse (endogenous in STC-1)) (UniProt P56450); experiment: as above

Molecule: MC4R with mCherry at its C-terminus (plasmid pmCherry-MC4R) (from UniProt P32245 1-332) (receptor)
binding [2]: binds

Molecule: endogenous MC4R of STC-1 cells (from UniProt P56450 1-332) (receptor)
binding [9]: binds

B1: endogenous NUCB2/nesfatin-1 of STC-1 cells (protein, UniProt P81117 25-420)
chain: T7 sequence
binding [10]: binds

The next lines start with the values.

binding [1]: no binding
Molecule: GLP-1R-HA (GLP-1 receptor, HA-tagged, from plasmid pc-GLP-1R-HA) (from UniProt P43220 24-463)

binding [3]: binds | binding [4]: no binding | binding [5]: binds | binding [6]: no binding | binding [7]: binds | binding [8]: binds | binding [1]: binds
Molecule: MC4R-HA (melanocortin 4 receptor, HA-tagged, from plasmid pc-MC4R-HA) (from UniProt P32245 1-332)
